Results on 38 molecules are retold here after PubChem BioAssay AID1645887 (National Center for Advancing Translational Sciences (NCATS), 2021).

Several values for one entry are separate records, joined by “and”; a condition that tells them apart may be missing. Equal entries are not always repeated. In all, about 16,000 compounds went through this assay and about 40 (0.2%) were called active. About 1% were inconclusive and are not listed. Calls follow the shape of the dose curve; as a rule, active = well fitted activation curve with a large enough effect; inconclusive = small, poorly fitted or top-dose-only effect, or another doubt; inactive = no such curve, though single readings can be large or run the other way. The list shows a part of the results.
% is scaled to controls: 0 for no effect and ±100 for the full control effect.

Sequence of UniProt Q8WZA2 (Q8WZA2 whole entry, looked up): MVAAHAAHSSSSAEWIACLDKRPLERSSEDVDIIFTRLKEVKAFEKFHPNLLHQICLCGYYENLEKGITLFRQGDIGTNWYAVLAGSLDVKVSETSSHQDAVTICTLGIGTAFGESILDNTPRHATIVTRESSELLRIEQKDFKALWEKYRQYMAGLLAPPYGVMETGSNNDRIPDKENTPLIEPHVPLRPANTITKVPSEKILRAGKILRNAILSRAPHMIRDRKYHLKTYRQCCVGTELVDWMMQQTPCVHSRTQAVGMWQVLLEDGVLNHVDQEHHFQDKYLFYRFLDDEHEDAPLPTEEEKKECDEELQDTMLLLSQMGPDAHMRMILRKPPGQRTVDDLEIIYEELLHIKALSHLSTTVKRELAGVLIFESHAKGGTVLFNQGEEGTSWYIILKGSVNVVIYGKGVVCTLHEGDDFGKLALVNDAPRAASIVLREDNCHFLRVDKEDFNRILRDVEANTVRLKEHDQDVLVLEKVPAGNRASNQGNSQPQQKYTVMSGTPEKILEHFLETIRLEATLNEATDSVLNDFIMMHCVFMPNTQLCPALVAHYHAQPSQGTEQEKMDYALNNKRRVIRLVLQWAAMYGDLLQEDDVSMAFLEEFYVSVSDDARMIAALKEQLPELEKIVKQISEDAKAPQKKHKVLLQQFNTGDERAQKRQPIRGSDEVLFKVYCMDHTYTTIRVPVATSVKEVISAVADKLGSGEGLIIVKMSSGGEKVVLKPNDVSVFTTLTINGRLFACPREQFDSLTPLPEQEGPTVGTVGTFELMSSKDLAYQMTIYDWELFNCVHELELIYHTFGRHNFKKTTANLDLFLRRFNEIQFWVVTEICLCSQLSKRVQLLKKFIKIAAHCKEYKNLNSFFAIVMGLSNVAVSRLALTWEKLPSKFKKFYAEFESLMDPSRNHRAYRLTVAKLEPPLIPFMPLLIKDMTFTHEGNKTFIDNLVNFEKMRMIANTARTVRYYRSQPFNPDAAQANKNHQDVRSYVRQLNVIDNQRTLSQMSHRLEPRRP

The target of the test is Rap guanine nucleotide exchange factor 4 (Homo sapiens) (UniProt Q8WZA2). Nature of the test: Validation qHTS for agonist of cAMP-regulated guanine nucleotide exchange factor 4 (EPAC2).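 Also: exchange makes BODIPY-GDP fluorescence drop when released from Rap1B; series mostly up to about 150 µM.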 The following applies: EPAC2 Rap1B BODIPY-GDP exchange, fluorescence; activation: stronger effect = higher value. An excerpt:
Principle Investigator: Xiaodong Cheng Ph.D.
The University of Texas Medical Branch, […], TX
In multi-cellular eukaryotic organisms, the effects of cAMP are transduced by two ubiquitously-expressed intracellular cAMP receptors, the classic protein kinase A/cAMP-dependent protein kinase (PKA/cAPK) and the more recently discovered exchange protein directly activated by cAMP/cAMP-regulated guanine nucleotide exchange factor (EPAC/cAMP-GEF). Both PKA and EPAC are ubiquitously expressed in all tissues, and an increase in intracellular cAMP levels will lead to the activation of both PKA and EPAC. Therefore, careful dissections of the individual role and relative contribution of EPAC and PKA within the overall cAMP signaling in various model systems are critical for further elucidating the mechanism of cAMP signaling. To date no EPAC-specific antagonists and agonist, as well as isoform-specific agonists have been reported, and developing EPAC-specific pharmacological probes to determine the physiological functions that EPAC play in the overall cAMP-mediated signaling remains a major challenge within the research field. Furthermore, identified regulators of EPAC may lead to new mechanism-based therapeutic strategies specifically targeting the EPAC / cAMP-signaling components as EPAC has been implicated to play important roles in major human pathological conditions such as diabetes, heart disease, and cancer.
This qHTS will be used to screen the Molecular Libraries Small Molecule Repository (MLSMR) as a concentration-titration series using the NCGC unique quantitative screening (qHTS) platform to find activators for EPAC1. In addition, this assay will also be used as a counterscreen for the EPAC2 qHTS. This fluorescent based assay is developed and validated for EPAC1 that measures exchange using EPAC effector Rap1 complex with BODIPY-GDP, a GDP analog with a tethered fluorophores. Activators are identified by monitoring the change in fluorescence signal as the exchanged free BODIPY-GDP has a reduced fluorescence compared to Rap1-bound BODIPY-GDP. Increase in signal (activation) is the desired outcome for the EPAC1 agonist while no activity in this assay is desired for the EPAC2 agonist counterscreen.
[1] de Rooij, J., Zwartkruis, F. J., Verheijen, M. H., Cool, R. H., Nijman, S. M., Wittinghofer, A., and Bos, J.L. (1998) Nature 396, 474-477.
Briefly, three uL of reagents (100 nM EPAC2, 250 nM RAP1B-BODIPY-GDP, 50 uM GDP) were dispensed into a 1536-well Greiner black solid-bottom medium binding assay plate. Controls and test compounds (23 nL) were transferred to the plate via a Kalypsys pin tool equipped with a 1536-pin array. The plates were centrifuged at 1,000 rpm for 15 seconds followed by 5 minute incubation at room temperature. The assay plates were read at 5 minute intervals for 30 minutes in the ViewLux plate reader using 480nm excitation and 540nm emission filters. The results were normalized to the agonist positive control of 6.5 mM cAMP.
On the technique in general: Quantitative high-throughput screening tests each substance at several concentrations.
For `CCOc1ccccc1OCCN[C@H](C)Cc1ccc(OC)c(S(N)(=O)=O)c1`, the activation was inactive: -9.6%.
In the case of `C[C@@](N)(C(=O)O)c1ccc(S(=O)(=O)O)cc1` it was inactive: -21.4%; in that of `COc1cccc(-c2nc(N3CCNCC3)c3ccccc3n2)c1`, inactive: -17.9%; in that of `Cc1cc2c(c(-c3cnccn3)c1)OC(CNC(=O)c1c(F)cccc1Cl)C2` (stereo not drawn), inactive: 1.81%.
On to `CCCCCCCCCCC/C=C\C(C)(C)/C=C\CCCC(=O)O`, for which the activation was inactive: -8.11% and inactive: -73.7%.
For `CCCCCCCCCCCCC[N+](C)(C)Cc1ccccc1` the value was inactive: 2.4%.
For `Nc1nc2c(ncn2C2OC(CO)CC2O)c(=O)[nH]1` (stereo not drawn) the value was inactive: -11.3%.
For `CC(C)(C)NC[C@H](O)c1ccc(O)c(CO)c1` the value was inactive: -10.9%; for `Cc1cc2c(cc1C)N[C@]1(C[C@H]3CCCC(=O)N4CC[C@@H](C1)[C@@H]34)C(=Nc1ccccc1C)N2`, inactive: -12.7%.
With `CN(CC(=O)O)c1ccc(C=O)cc1`, the activation is inactive: -9.52%.
In the case of `COc1ccc(C(=O)N2CCC3(CCN(Cc4ccncc4)CC3)CC2)cc1` it was inactive: -6.28%; in that of `CC(=O)Nc1c(I)c(C(=O)O)c(I)c(N(C)C(C)=O)c1I`, inactive: -16.5%; in that of `CC(=O)N[C@H](CS)C(=O)O`, inactive: 2.82%.
In the case of `COc1ccc2[nH]cc(CCNc3ncncc3-c3ccc(N(C)C)cc3)c2c1`, the activation was inactive: -8.15%.
For `COc1cccc(CN(C)C(=O)c2cnn(-c3nccc(-c4ccc5c(c4)OCO5)n3)c2C)c1` the value was inactive: -8.12%.
For `COc1ccc(-c2oc3ccccc3c(=O)c2O)cc1OC` the value was inactive: -0.984%; for `N#CCCn1c(=O)c(-c2ccccc2)nc2cnc(N3CCOCC3)nc21`, inactive: -7.43%.
In the case of `Cc1cc(O)cc2c1O[C@](C)(CCC[C@H](C)CCC[C@H](C)CCCC(C)C)CC2` it was inactive: 6.69% and inactive: -17.5%; in that of `CCCCNC(=O)NS(=O)(=O)c1ccc(C)cc1`, inactive: -3.16% [middle of 4 runs].
On to `Nc1c2ccccc2nc2ccccc12` (tested in a mixture with another compound), for which the activation is inactive: -10.5%.
For `COC1C(O)CC(=O)OC(C)C/C=C/C=C/[C@@H](OC2CCC(N(C)C)C(C)O2)C(C)C[C@@H](CC=O)[C@@H]1O[C@H]1OC(C)[C@H](O[C@@H]2C[C@@](C)(O)C(O)C(C)O2)C(N(C)C)C1O` (stereo partly drawn), the activation was inactive: 10%.
For `COc1ccc(-c2nc3cnc(N4CCOCC4)nc3n(C[C@H]3CCCO3)c2=O)cc1` the value was inactive: -8.33%.
For `O=Cc1ccc2[nH]ccc2c1` the value was inactive: -19.4%.
In the case of `COC(=O)c1c(C)cc(O)cc1O` it was inactive: -7.42%.
Take `COc1c(CO)cc(CO)cc(CO)c1=O`: the activation was inactive: -64.9%.
For `CCOC(=O)OC(C)OC1=C(C(=O)Nc2ccccn2)N(C)S(=O)(=O)c2ccccc21` (stereo not drawn), the activation was inactive: -0.524%.
In the case of `CC(=O)[C@H]1CC[C@H]2[C@@H]3C[C@H](C)C4=CC(=O)CC[C@]4(C)[C@H]3[C@@H](O)C[C@]12C` it was inactive: 4.1%; in that of `[N-]=[N+]=N[C@@H](CCN1CC[C@H](NC(=O)OCc2ccccc2)CCC1=O)c1ccccc1`, inactive: -8.4%; in that of `COCCn1c(=O)c(-c2cccs2)nc2cnc(N3CCN(C)CC3)nc21`, inactive: 5.09%.
As to `N#Cc1ccc(CN2CCC3(CCNCC3)CC2)cc1`, the activation is inactive: 7.14%.
In the case of `C[C@]12CC[C@@H]3c4ccc(O)cc4CC[C@H]3[C@@H]1CC[C@@H]2OP(=O)(O)O` it was inactive: 7.32%.
In the case of `CC(C)(c1ccc(O)cc1)c1ccc(O)cc1` it was inactive: -24.3%; in that of `CCn1c(-c2ccccc2F)nc2cc(NC(C)=O)cc(C(=O)N3CCNC(=O)C3CC(=O)OC)c21` (stereo not drawn), inactive: -2.82%.
In the case of `CCCCCCc1ccc(O)cc1O` it was inactive: -62.2% and inactive: -49.8%; in that of `CCN1C(=O)CC(CC(=O)N2CCCCC2c2nccs2)(c2ccccc2C)C1=O` (stereo not drawn), inactive: -19.4%.
As to `NC(Cc1ccc(O)c(O)c1)C(=O)O` (stereo not drawn), the activation is inactive: -18.3%.
For `Cc1cc(O)c2c(c1)O[C@@]1(C)CC[C@H]3C(C)(C)CCCC34CO[C@@H]2[C@H]41` (stereo partly drawn) the value was inactive: -4.67%; for `NC(=O)CC[C@@H]1NC(=O)[C@H](Cc2ccccc2)NC(=O)[C@H](Cc2ccc(O)cc2)NC(=O)CCSSC[C@@H](C(=O)N2CCC[C@H]2C(=O)N[C@@H](CCCN=C(N)N)C(=O)NCC(N)=O)NC(=O)[C@H](CC(N)=O)NC1=O`, inactive: 0.824% and inactive: -5.97%.
